Results: publication PMC10307035, “Antiviral activity of singlet oxygen-photogenerating perylene compounds against SARS-CoV-2: Interaction with the viral envelope and photodynamic virion inactivation” (Virus Research, 2023)

tested on: SARS-CoV-2 surface antigen (spike protein S1)

SMILES | expression of SARS-CoV-2 surface antigen (spike protein S1)
O=c1[nH]c(=O)n([C@H]2C[C@H](O)[C@@H](CO)O2)cc1C#Cc1ccc2c3cccc4cccc(c5cccc1c52)c43 [Compound 2, 5-(perylen-3-yl)ethynyl-2′-deoxy-uridine] | reduce the expression
CC(C)(C)C(=O)OCn1c(=O)c(C#Cc2ccc3c4cccc5cccc(c6cccc2c63)c54)cn(CC(=O)N(CCO)CCO)c1=O [Compound 13] | reduce the expression
O=C(NCCCCO)c1ccc(-c2ccc3c4cccc5cccc(c6cccc2c63)c54)s1 [Compound 17] | reduce the expression
